From the supplement of paper PMC8728848
Some of the results follow.

Assays:
Assay in all cases: glycan array binding signal (z-score within array); higher = stronger binding
Details in all cases: glycan notation: IUPAC condensed, linker removed
[1] = biological target: GlcNAc(b1-4)GlcNAc(b1-4)GlcNAc(b1-4)GlcNAc(b1-4)GlcNAc(b1-4)GlcNAc
Procedure, shortened: (§1)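 The binding signal is a Z-score computed within each array. Data were drawn from 3228 arrays in the Consortium for Functional Glycomics database, restricted to those with a known protein sequence. Scores were averaged over arrays of the same protein sequence at different concentrations or buffers, and over linkers, and negative values can be taken as non-binding.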

[2] = biological target: GlcNAc(b1-4)[GlcNAc(b1-6)]GalNAc
Procedure, shortened: as §1

[3] = biological target: GlcNAc(b1-6)Gal(b1-4)GlcNAc
Procedure, shortened: as §1

GlcNAc(b1-6)GalNAc = biological target: GlcNAc(b1-6)GalNAc
Procedure, shortened: as §1

[4] = biological target: GlcNAc6S(b1-3)Gal(b1-4)GlcNAc
Procedure, shortened: as §1

Kdn(a2-3)Gal(b1-3)GalNAc = biological target: Kdn(a2-3)Gal(b1-3)GalNAc
Procedure, shortened: as §1

Kdn(a2-3)Gal(b1-3)GlcNAc = biological target: Kdn(a2-3)Gal(b1-3)GlcNAc
Procedure, shortened: as §1

Kdn(a2-3)Gal(b1-4)Glc = biological target: Kdn(a2-3)Gal(b1-4)Glc
Procedure, shortened: as §1

Kdn(a2-3)Gal(b1-4)GlcNAc = biological target: Kdn(a2-3)Gal(b1-4)GlcNAc
Procedure, shortened: as §1

[5] = biological target: Kdn(a2-3)Gal(b1-4)[Fuc(a1-3)]GlcNAc
Procedure, shortened: as §1

Kdn(a2-6)Gal(b1-4)GlcNAc = biological target: Kdn(a2-6)Gal(b1-4)GlcNAc
Procedure, shortened: as §1

[6] = biological target: Man(a1-2)Man(a1-2)Man(a1-3)Man
Procedure, shortened: as §1

[7] = biological target: Man(a1-2)Man(a1-2)Man(a1-6)[Man(a1-3)]Man
Procedure, shortened: as §1

Man(a1-2)Man(a1-3)Man = biological target: Man(a1-2)Man(a1-3)Man
Procedure, shortened: as §1

[8] = biological target: Man(a1-2)Man(a1-3)[Man(a1-2)Man(a1-6)]Man
Procedure, shortened: as §1

[9] = biological target: Man(a1-2)Man(a1-3)[Man(a1-2)Man(a1-6)]Man(a1-6)[Man(a1-2)Man(a1-2)Man(a1-3)]Man
Procedure, shortened: as §1

[10] = biological target: Man(a1-2)Man(a1-3)[Man(a1-2)Man(a1-6)]Man(a1-6)[Man(a1-2)Man(a1-2)Man(a1-3)]Man(b1-4)GlcNAc(b1-4)GlcNAc
Procedure, shortened: as §1

[11] = biological target: Man(a1-2)Man(a1-3)[Man(a1-6)]Man(a1-6)[Man(a1-2)Man(a1-3)]Man(b1-4)GlcNAc(b1-4)GlcNAc
Procedure, shortened: as §1

[12] = biological target: Man(a1-2)Man(a1-6)[Man(a1-3)]Man(a1-6)[Man(a1-2)Man(a1-2)Man(a1-3)]Man
Procedure, shortened: as §1

[13] = biological target: Man(a1-2)Man(a1-6)[Man(a1-3)]Man(a1-6)[Man(a1-2)Man(a1-2)Man(a1-3)]Man(b1-4)GlcNAc(b1-4)GlcNAc
Procedure, shortened: as §1

Man(a1-3)[Man(a1-6)]Man = biological target: Man(a1-3)[Man(a1-6)]Man
Procedure, shortened: as §1

[14] = biological target: Man(a1-3)[Man(a1-6)]Man(a1-6)[Man(a1-2)Man(a1-3)]Man(b1-4)GlcNAc(b1-4)GlcNAc
Procedure, shortened: as §1

[15] = biological target: Man(a1-3)[Man(a1-6)]Man(a1-6)[Man(a1-3)]Man
Procedure, shortened: as §1

[16] = biological target: Man(a1-3)[Man(a1-6)]Man(a1-6)[Man(a1-3)]Man(b1-4)GlcNAc(b1-4)GlcNAc
Procedure, shortened: as §1

[17] = biological target: Man(a1-3)[Man(a1-6)]Man(b1-4)GlcNAc(b1-4)GlcNAc
Procedure, shortened: as §1

[18] = biological target: Man(a1-3)[Man(a1-6)]Man(b1-4)GlcNAc(b1-4)[Fuc(a1-6)]GlcNAc
Procedure, shortened: as §1

Man(a1-6)Man = biological target: Man(a1-6)Man
Procedure, shortened: as §1

Man(b1-4)GlcNAc = biological target: Man(b1-4)GlcNAc
Procedure, shortened: as §1

MurNAc(b1-4)GlcNAc = biological target: MurNAc(b1-4)GlcNAc
Procedure, shortened: as §1

Neu5Ac(a2-3)Gal = biological target: Neu5Ac(a2-3)Gal
Procedure, shortened: as §1

[19] = biological target: Neu5Ac(a2-3)Gal(b1-3)GalNAc
Procedure, shortened: as §1

[20] = biological target: Neu5Ac(a2-3)Gal(b1-3)GalNAc(b1-3)Gal(a1-4)Gal(b1-4)Glc
Procedure, shortened: as §1

[21] = biological target: Neu5Ac(a2-3)Gal(b1-3)GalNAc(b1-4)Gal(b1-4)Glc
Procedure, shortened: as §1

[22] = biological target: Neu5Ac(a2-3)Gal(b1-3)GalNAc(b1-4)[Neu5Ac(a2-3)]Gal(b1-4)Glc
Procedure, shortened: as §1

[23] = biological target: Neu5Ac(a2-3)Gal(b1-3)GalNAc(b1-4)[Neu5Ac(a2-8)Neu5Ac(a2-3)]Gal(b1-4)Glc
Procedure, shortened: as §1

[24] = biological target: Neu5Ac(a2-3)Gal(b1-3)GalNAc6S
Procedure, shortened: as §1

[25] = biological target: Neu5Ac(a2-3)Gal(b1-3)GlcNAc
Procedure, shortened: as §1

B1: B725 (Bifidobacterium sp) (protein)
chain: MNNTTRAVIATAAIGALLIPLAGCGNTTTSSGKTELTVWSWDASIDRAAKSFMKANPDITVKVSNVGSTEETYTALNNAAQAGSGLPDVTLIEYLAIPQFVHSDTLMDLSKVYNTAKLKDTFTPGTWNSVNINGGLYAMPADSGPMAYFYDKDVFDKAGISEPPTTWDEFYEDAKKIRATGSYITSDSGDAGLFNAMMWAMGGHAYKLNDDKLTINIAKDKGAQRFMDLWQKMRDEDLIDVHTKTWTDDWMKSLGDGSIASLISGAWMANNLLQGVPQATGKFRVALLPTIDGTPINGEYGGSGLAITKKIPDGKLDAAKKFVEYVTTNDEGIDARVSNGSFPATTKTLNQKDFLAKTTLRNTDGSDNEFFGGQKYNEIFSQAAKDVTGKWEFLPFEPYARSVYNDNMGSFFAGKTSFRTAADNWQKALKDYAKDQGFTVQ
- glycan array binding signal (z-score) [1]: -0.231
- glycan array binding signal (z-score) [2]: -0.219
- glycan array binding signal (z-score) [3]: -0.227
- glycan array binding signal (z-score) (GlcNAc(b1-6)GalNAc): -0.226
- glycan array binding signal (z-score) [4]: -0.087
- glycan array binding signal (z-score) (Kdn(a2-3)Gal(b1-3)GalNAc): -0.219
- glycan array binding signal (z-score) (Kdn(a2-3)Gal(b1-3)GlcNAc): -0.213
- glycan array binding signal (z-score) (Kdn(a2-3)Gal(b1-4)Glc): -0.211
- glycan array binding signal (z-score) (Kdn(a2-3)Gal(b1-4)GlcNAc): -0.23
- glycan array binding signal (z-score) [5]: -0.217
- glycan array binding signal (z-score) (Kdn(a2-6)Gal(b1-4)GlcNAc): -0.147
- glycan array binding signal (z-score) [6]: -0.192
- glycan array binding signal (z-score) [7]: -0.215
- glycan array binding signal (z-score) (Man(a1-2)Man(a1-3)Man): -0.229
- glycan array binding signal (z-score) [8]: -0.221
- glycan array binding signal (z-score) [9]: -0.228
- glycan array binding signal (z-score) [10]: -0.236
- glycan array binding signal (z-score) [11]: -0.237
- glycan array binding signal (z-score) [12]: -0.217
- glycan array binding signal (z-score) [13]: -0.22
- glycan array binding signal (z-score) (Man(a1-3)[Man(a1-6)]Man): -0.224
- glycan array binding signal (z-score) [14]: -0.226
- glycan array binding signal (z-score) [15]: -0.234
- glycan array binding signal (z-score) [16]: -0.227
- glycan array binding signal (z-score) [17]: -0.224
- glycan array binding signal (z-score) [18]: -0.203
- glycan array binding signal (z-score) (Man(a1-6)Man): -0.232
- glycan array binding signal (z-score) (Man(b1-4)GlcNAc): -0.231
- glycan array binding signal (z-score) (MurNAc(b1-4)GlcNAc): -0.232
- glycan array binding signal (z-score) (Neu5Ac(a2-3)Gal): -0.213
- glycan array binding signal (z-score) [19]: -0.218
- glycan array binding signal (z-score) [20]: -0.221
- glycan array binding signal (z-score) [21]: -0.199
- glycan array binding signal (z-score) [22]: -0.184
- glycan array binding signal (z-score) [23]: -0.218
- glycan array binding signal (z-score) [24]: -0.218
- glycan array binding signal (z-score) [25]: -0.222
